Test results as given in PubChem BioAssay AID1345082 (National Center for Advancing Translational Sciences (NCATS), 2018).
Screen size: about 94,000 compounds; about 4,000 (4.3%) were called active. Inconclusive means that the source gave no clear call. Such entries were picked first, then a sample of the others. Calls come from the whole dose curve; as a rule, active = well fitted inhibition curve with a large enough effect; inconclusive = small, poorly fitted or top-dose-only effect; inactive = no such curve, though single readings can be large or run the other way. A potency beside an inconclusive call is a rough fit, not a confirmed value.

Assay: Cytotoxic Profiling in NIH 3T3 Cell Line of Diverse Libraries Using Quantitative High-Throughput Screening; note: nearly all actives have a fitted effect of over 55% in size
Conditions: NIH 3T3 viability, CellTiter-Glo ATP luminescence, 48-72 h; series mostly up to 96.7 µM
Outline: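 First NIH 3T3 cells are plated at 400 cells/well; next compound is pinned in; then plates incubate 48 or 72 hr at 37 °C; finally CellTiter-Glo is added and luminescence read after 10 min.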
Potency is the fitted concentration of half-maximal effect; tags give direction and shape of the fitted curve.

Question: For CN1Cc2ncnc(N3CCC(c4ccccc4)CC3)c2CN(c2ccccc2)C1=O, which Potency is on record?
Answer: inconclusive: 70.8 µM [inhibitor, single point]

Question: For COc1ccc(C(=O)N2CC[C@H]3C(=O)NCCCCCCN(Cc4ccncc4)[C@@H]3C2)c(OC)n1, which Potency is on record?
Answer: inactive

Question: Which Potency does the source give for O=C1CC(c2ccccc2)N(C(=O)CNC(=O)c2ccoc2)CCCCCCN1 (stereo not given) here?
Answer: inconclusive: 79.4 µM [inhibitor, partial curve, poor fit]

Question: Which Potency does the source give for CCOC(=O)[C@@H]1[C@@H](O)C(=O)N(C)C12CCN(C(=O)OCC)CC2 here?
Answer: inactive

Question: Which Potency does the source give for COCCOCc1nc(C2CCCCN2C(=O)c2ccncc2)no1 (stereo not given) here?
Answer: inactive

Question: With CN1CCCN(C(=O)C2CCCO2)c2ccccc21 (stereo not given) as the molecule, how does the Potency read?
Answer: inconclusive: 56.2 µM [inhibitor, partial curve, poor fit]

Question: For COc1ccccc1CN1CCCn2nc(C)c(-c3ccccc3[S+](C)(=O)[O-])c21, which Potency is on record?
Answer: active: 35.5 µM

Question: For CCC1Oc2ccc(NC(=O)c3ccc([N+](=O)[O-])cc3)cc2CN(C(C)CC)C1=O (stereo not given), which Potency is on record?
Answer: inconclusive: 44.7 µM [inhibitor, partial curve, poor fit]

Question: With O=C(c1ccc(-c2ccn[nH]2)cc1)N1CCCC(CCc2c(F)cccc2F)C1 (stereo not given) as the molecule, how does the Potency read?
Answer: inconclusive: 50.1 µM [inhibitor, partial curve, poor fit]

Question: With Fc1ccccc1CN1CCC[C@H]1c1nc(-c2ccnc(N3CCOCC3)c2)no1 as the molecule, how does the Potency read?
Answer: inconclusive: 100 µM [inhibitor, partial curve]

Question: For Cc1ccc2c(n1)OC1(CCCC1)CN(Cc1ccc3c(c1)OCO3)C2=O, which Potency is on record?
Answer: inconclusive: 20 µM [inhibitor, partial curve, poor fit]

Question: Which Potency does the source give for O=C(Nc1ccc(Cl)cc1)N1CCN(C(=O)c2nc3cccnc3n(CCc3ccccc3)c2=O)CC1 here?
Answer: inconclusive: 50.1 µM [inhibitor, partial curve, poor fit]

Question: Which Potency does the source give for Cc1cccc(OC[C@H]2C[C@@H](NC(=O)Nc3ccccc3)[C@H](O)[C@@H]2O)n1 here?
Answer: inconclusive: 89.1 µM [inhibitor, partial curve, poor fit]

Question: For Cc1ccsc1C(=O)N1CCC(Cc2nc(-c3ccncc3)n[nH]2)CC1, which Potency is on record?
Answer: inactive

Question: Which Potency does the source give for O=C(NCCCc1ccccc1)c1ccc2nc(-c3ccncc3)oc2c1 here?
Answer: inconclusive: 35.5 µM [inhibitor, full curve, poor fit]

Question: Which Potency does the source give for COc1ccc(N2CC(c3noc(-c4ccc(F)cc4)n3)CC2=O)cc1OC (stereo not given) here?
Answer: inactive

Question: Which Potency does the source give for Cc1ccccc1N1CCN(C(=O)c2cc3n(n2)CC(c2ccc(Cl)cc2)OC3)CC1 (stereo not given) here?
Answer: inconclusive: 44.7 µM [inhibitor, partial curve, poor fit]

Question: Which Potency does the source give for CN1CC(=O)N(CC(=O)N2CCC3(CCCN(C)C3=O)C2)C1=O (stereo not given) here?
Answer: inactive

Question: Which Potency does the source give for CN(C)c1ccc(CNC2(Cc3cc(-c4ccc(F)cc4)on3)COC2)cc1 here?
Answer: inconclusive: 63.1 µM [inhibitor, partial curve, poor fit]

Question: For CN1CCN(c2ccc(-c3n[nH]c4c3CC(=O)N(CC3CC3)C4)cc2)CC1, which Potency is on record?
Answer: inconclusive: 89.1 µM [inhibitor, partial curve, poor fit]

Question: Which Potency does the source give for COCCn1c(C)cc(C(=O)N2CCCC(Cc3noc(-c4cnccn4)n3)C2)c1C (stereo not given) here?
Answer: inactive

Question: For CN(C)C(=O)Cc1c[nH]c2ncc(-c3cccnc3)cc12, which Potency is on record?
Answer: active: 25.1 µM

Question: Which Potency does the source give for CC(=O)N1CCN(c2cc(-c3ccc(Cl)cc3)nc3c(C)noc23)CC1 here?
Answer: inconclusive: 10 µM [inhibitor, full curve, poor fit]

Question: Which Potency does the source give for Cc1nc2c(c(=O)[nH]1)CCN(C(=O)C1(C)CCc3c(C)c(O)c(C)c(C)c3O1)C2 (stereo not given) here?
Answer: inconclusive: 39.8 µM [inhibitor, partial curve, poor fit]

Question: Which Potency does the source give for CCc1noc(-c2cn(C3CCCN(C(=O)c4ccc(OC(F)(F)F)cc4)C3)nn2)n1 (stereo not given) here?
Answer: inactive

Question: For COCCN1Cc2nc(Nc3ccc(F)c(Cl)c3)ccc2OCC1=O, which Potency is on record?
Answer: inconclusive: 89.1 µM [inhibitor, partial curve]

Question: For COc1ccc(CN2Cc3[nH]cnc3C[C@H]2c2nc(-c3ccccc3)no2)cc1, which Potency is on record?
Answer: inconclusive: 100 µM [inhibitor, partial curve, poor fit]

Question: For CNCCN1C(=O)CC[C@H]2CN(c3ncc(Cl)cc3F)CC[C@H]21, which Potency is on record?
Answer: inactive

Question: Which Potency does the source give for Cc1ccc(C(=O)N2CCC3(CC2)CC(N(Cc2ccccc2)C2CC2)CCO3)cc1 (stereo not given) here?
Answer: inconclusive: 50.1 µM [inhibitor, partial curve, poor fit]

Question: Which Potency does the source give for O=C1C2CN(Cc3cccc(Cl)c3)CCC2OCCN1Cc1ccccc1F (stereo not given) here?
Answer: inconclusive: 89.1 µM [inhibitor, partial curve, poor fit]

Question: Which Potency does the source give for COc1ccc(-c2cc3c(=O)n(CCNC(=O)c4cccc5[nH]ccc45)ccn3n2)cc1 here?
Answer: inconclusive: 2.51 µM [inhibitor, full curve, poor fit]

Question: Which Potency does the source give for Cc1ccc(-n2c(C3CCN(C(=O)c4cc(F)ccc4Cl)CC3)n[nH]c2=O)cc1 here?
Answer: inconclusive: 44.7 µM [inhibitor, partial curve, poor fit]

Question: With Cc1cnc(C(=O)NC2C[C@H]3CC[C@@H](C2)N3C(=O)c2ccc(C)s2)cn1 (stereo not given in full) as the molecule, how does the Potency read?
Answer: inactive

Question: Which Potency does the source give for O=C(NCc1ccc(Cl)cc1)C1CN(C2CCCCC2)C(=O)N1 (stereo not given) here?
Answer: inactive

Question: For COc1ccc(C(=O)N2CCCC3(CN[S+](=O)([O-])c4cccnc4N3)C2)cc1 (stereo not given), which Potency is on record?
Answer: inactive

Question: With O=C([C@@H]1C[C@H](Oc2ccccc2)CN1C(=O)CC1CCCC1)N1CCCC1 as the molecule, how does the Potency read?
Answer: active: 31.6 µM

Question: With CC(C)(C)c1cc(C[C@@H]2CC[C@H](O)[C@@H](CN(CC3CC3)CC3CC3)O2)no1 as the molecule, how does the Potency read?
Answer: inconclusive: 100 µM [inhibitor, partial curve, poor fit]

Question: For COc1ccc(C(=O)N2CCC3(CC2)NC(=O)N(c2cccc(F)c2)N3)cc1F, which Potency is on record?
Answer: inconclusive: 11.2 µM [inhibitor, full curve, poor fit]

Question: With CCC(=O)N1CCc2c(C(=O)NCc3ccccc3F)cccc21 as the molecule, how does the Potency read?
Answer: inconclusive: 70.8 µM [inhibitor, single point]

Question: With COc1cc(CNC(=O)c2ccc3c(c2)N(C(=O)c2ccc(F)cc2)CC3)cc(OC)c1 as the molecule, how does the Potency read?
Answer: inconclusive: 28.2 µM [inhibitor, partial curve]
